Data as given in publication PMC6919601, “Identification of Plasmodium dipeptidyl aminopeptidase allosteric inhibitors by high throughput screening” (PLoS ONE, 2019).
About 230 (0.21%) of roughly 110,000 compounds showed an effect of 50% or more. This is one part of the list.

target: DPAP1 (Plasmodium falciparum, UniProt Q8IIJ9); experiment: primary screen, percent inhibition; read by cleavage of a fluorogenic dipeptide substrate; higher = more effect of the substance; design: species or system P. falciparum D10 trophozoite lysates; single well
Sequence (Q8IIJ9 whole entry, looked up): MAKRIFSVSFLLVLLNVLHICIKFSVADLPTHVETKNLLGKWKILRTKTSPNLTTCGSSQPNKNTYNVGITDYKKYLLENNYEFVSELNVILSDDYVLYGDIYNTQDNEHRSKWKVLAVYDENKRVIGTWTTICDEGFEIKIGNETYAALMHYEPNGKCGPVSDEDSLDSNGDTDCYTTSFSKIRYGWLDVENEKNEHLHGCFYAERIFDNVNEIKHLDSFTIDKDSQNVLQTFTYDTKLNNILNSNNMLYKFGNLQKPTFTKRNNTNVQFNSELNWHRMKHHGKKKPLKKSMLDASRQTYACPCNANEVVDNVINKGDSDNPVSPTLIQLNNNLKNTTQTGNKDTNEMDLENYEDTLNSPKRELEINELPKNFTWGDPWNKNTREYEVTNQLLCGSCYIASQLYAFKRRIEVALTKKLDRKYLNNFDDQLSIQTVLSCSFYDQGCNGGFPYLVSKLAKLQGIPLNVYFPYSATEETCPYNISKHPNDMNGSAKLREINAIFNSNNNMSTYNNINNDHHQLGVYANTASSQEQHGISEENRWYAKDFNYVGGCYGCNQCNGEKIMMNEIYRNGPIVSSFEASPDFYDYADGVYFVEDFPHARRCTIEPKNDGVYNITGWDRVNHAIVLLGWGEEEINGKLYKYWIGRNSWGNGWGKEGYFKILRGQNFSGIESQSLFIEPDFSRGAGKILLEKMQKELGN
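Further: 30 min substrate incubation versus DMSO and 10 µM JCP410 controls.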

SMILES | % Inhibition @ 10 uM [%]
COC(=O)c1nnn(-c2cc(Cl)ccc2C)c1C(=O)OC | 1.64
CC(C)CCNC(=O)C1CCCN(S(C)(=O)=O)C1 (stereo not shown) | 3.79
O=[N+]([O-])c1ccc(N2CCN(Cc3cccc(F)c3)CC2)cc1 | 1.48
COc1cc(OC)c(C2C3=C(O)CCCC3=Nc3nc(SC)nn32)cc1OC (stereo not shown) | 4.86
O=C(Nc1ccc(F)cc1)c1ccc(C#CC2(O)CCCCC2)cc1 | -4.93
Cc1nn(CC(=O)N2CCN(C)CC2)c(=O)c2c1sc1ccccc12 | 0.85
CSc1ncc(C(=O)NCc2ccccc2C)c(-c2ccccc2)n1 | 2.74
N#CCNC(=O)[C@H](Cc1ccccc1C(F)(F)F)NC(=O)OCc1ccccc1 | -5.2
O=C(O)c1cc(Sc2ccccc2)nc2ccccc12 | 4.37
O=C(O)CCCCCNS(=O)(=O)c1cccc(C(=O)O)c1 | 4.86
CC(CCc1ccco1)NC(=O)c1cc2sc(Cl)cc2n1C (stereo not shown) | -5.07
CCN(CC)CCn1nc(C)nc1-c1ccccc1O | -1.72
CCOc1ccc(CNCc2c(C(=O)O)n(Cc3ccccc3)c3cc(C)ccc23)cc1 | -2.97
C=Cc1ccc(Cn2c(C(=O)O)c(CNCc3ccc(OCC)cc3)c3ccccc32)cc1 | -1.09
Cc1n[nH]c(C)c1CCCCCCOc1ccccc1F | -11.2
COc1ccc(S(=O)(=O)NC2CCCCCC2)cc1 | -0.833
COc1cccc(C(c2c(O)nc(S)nc2O)N2CCOCC2)c1OC (stereo not shown) | 1.3
C=CCn1c(=N)c(S(=O)(=O)c2ccc(C)cc2)cc2c(=O)n3cc(C)ccc3nc21 | -5.2
CC1CC(C)CN(CCCNC(=O)Cn2nc(Cc3cccnc3)c3ccccc3c2=O)C1 (stereo not shown) | 21.1
O=C(CSc1cccc2cccnc12)Nc1ccc2ccccc2c1 | 1.08
Cc1ccc(C)c(NC(=O)CN(c2cccc(Cl)c2C)S(C)(=O)=O)c1 | -7.58
Cc1cccc2c(C(=O)O)cc(-c3cccc(Br)c3)nc12 | 2.09
CC1=C(C(=O)N2CCOCC2)C(c2ccc(Cl)cc2)C2=C(O)CCCC2=N1 (stereo not shown) | -10.9
COc1ccc(C2N=C(N)Nc3nc4ccccc4n32)c(OC)c1 (stereo not shown) | -1.33
O=C(NCc1cccnc1)C1CCCN(Cc2cnn(-c3ccccc3)c2-n2cccc2)C1 (stereo not shown) | 6.91

SMILES | % Inhibition @ 10 uM [%]
COC(=O)c1ccc(C2SCC(=O)N2CCc2ccccc2)cc1 (stereo not shown) | -2.98
Cc1ccnc(NS(=O)(=O)c2ccc(-n3cccn3)cc2)c1 | -0.231
CC(=O)c1c(C(C)=O)c(C)n(-c2ccc(C(=O)O)cc2)c1C | 5.13
Cc1ccc(C(=O)N/C(=C\c2cccnc2)C(=O)N2CC3CC(C2)c2cccc(=O)n2C3)cc1 (stereo not shown) | -3.02
CCc1c(C#N)c(N)nc(SCC(=O)c2ccc(Cl)c(Cl)c2)c1C#N | -0.736
COC(=O)c1sccc1NC(=O)c1sc2ccccc2c1Cl | 5.31
Cc1nn2c(C(F)(F)F)cc(-c3ccc(Cl)cc3)nc2c1C(N)=O | -6.41
COc1ccc(CNC(=O)CCNS(=O)(=O)c2ccc(Br)s2)cc1 | -4.79
O=C(Nc1ccc(Cl)cc1)Nc1ccc(S(=O)(=O)N2CCCCCC2)cc1 | -2.74
CCOP(=O)(CN1CCCCCC1=O)OCC | -3.27
C=CCn1c2ccccc2n2cc(-c3ccc(Cl)cc3)nc12 | 1.27
Brc1ccc(OCCCCCN2CCCC2)cc1 | 4.9
Cc1cc(C)c(Cn2c(C)c(CNCc3cccc(Cl)c3)c(C(=O)O)c2C)c(C)c1 | 6.02
COc1ccccc1CNC(=O)c1ccc(CSCc2cccc(F)c2)o1 | -4.53
N=Cc1c(-c2ccccc2)nn(-c2nc3ccccc3s2)c1O | -3.46
O=C(NCCCC[C@H](NC(=O)[C@H](Cc1ccc2ccccc2c1)NC(=O)C1CCNCC1)C(=O)CO)OCc1ccccc1 | -2.35
Cc1ccc(CNC(=O)Cn2ccc3cc(S(=O)(=O)N4CCC(C)CC4)ccc32)o1 | -2.74
CCc1ccc(Cn2nnc(C(=O)O)c2C(=O)O)cc1 | -3.13
O=C(c1ccccc1)N1CCN(C2CC(=O)N(CCc3ccccc3)C2=O)CC1 (stereo not shown) | 1.91
CN(CCc1ccccn1)C1CCC(c2ccccc2)CC1 (stereo not shown) | 4.75
O=[N+]([O-])c1ccc(Cl)c(CN2CC=C(c3ccc(F)cc3)CC2)c1 | -0.0648
CC(=O)NC(=O)/C(=C(/C)NCc1ccccc1)c1ccccc1 | -8.38
COc1ccc(C2C(C(=O)C(C)(C)C)=C(O)C(=O)N2Cc2ccccc2)cc1 (stereo not shown) | -3.94
Oc1c2nc3ccc(F)cc3c-2ncn1CCN1CCC(Cc2ccccc2)CC1 | -5.36
O=C(Nc1nnc(S(=O)(=O)N2CCCCCC2)s1)c1cccs1 | 4.86

SMILES | % Inhibition @ 10 uM [%]
CCCCNC(=O)C1CCN(S(=O)(=O)N2CCOCC2)CC1 | -1.56
Cc1ccc(C)c(S(=O)(=O)NCC(=O)N2CCCC2)c1 | 1.87
O=C(CN1C(=O)c2ccccc2S1(=O)=O)Nc1ccc2c(c1)OCO2 | 0.727
CN(CCc1ccccn1)Cc1cccc(Cl)c1Cl | -1.5
CC(C)N(Cc1ccccc1)C(=O)C1CCCN1S(=O)(=O)c1cccc2nsnc12 (stereo not shown) | -2.48
CC(=O)NCCc1ccc(S(N)(=O)=O)cc1 | 3.58
Cc1ccccc1OC(C)C(=O)Nc1ccccc1Cl (stereo not shown) | -2.19
O=C(NCc1cccc(Cl)c1)c1nc(O)c2nnn(Cc3ccccc3)c2n1 | -1.82
Cc1ccc(C)c(OCC(=O)Nc2ccc(F)cc2F)c1 | -5.62
Cc1ccc(-c2ccccc2)n1-c1ccc(O)cc1 | -6.6
Cc1ccccc1C(=O)N(Cc1cccc(F)c1)C1CCS(=O)(=O)C1 (stereo not shown) | 5.17
CS(=O)(=O)N(CC(=O)N1CCN(Cc2ccccc2)CC1)c1ccccc1Cl | -2.74
Cc1cc(O)n2nc(-c3ccccc3C)cc2n1 | -7.19
Cc1ccc(CNC(=O)N2CCN3CCCCC3C2)cc1 (stereo not shown) | -4.96
CC(C)(C)OC(=O)N1CCC(c2c(C(=O)O)cnn2-c2ccccc2)CC1 | -1.03
OCCCNCC(O)Cn1c2ccccc2c2ccccc21 (stereo not shown) | -1.47
c1csc(C2=Nn3c(nnc3-c3ccc4c(c3)OCO4)SC2)c1 | -0.628
COc1ccccc1Nc1nc(OCC(F)(F)F)nc(OCC(F)(F)F)n1 | 0.67
Cc1ccc(S(=O)(=O)NCC2CCC(C(=O)NCCCSC3CCCCC3)CC2)cc1 (stereo not shown) | -0.971
CC12C=CC3(CN(Cc4ccccc4)C(=O)C3C1C(=O)NCCc1ccc(Cl)cc1)O2 (stereo not shown) | -2.14
CC(CCc1ccccc1)NC(=O)CCCC(=O)c1ccccc1 (stereo not shown) | -8.86
Cc1cccc(C)c1-n1ncc(C(=O)N2CCOCC2)c1C1CCN(C(=O)OC(C)(C)C)CC1 | 2.09
COc1ccc(OC)c(S(=O)(=O)N2CCN(c3cc(Cl)ccc3Cl)CC2)c1 | -4.52
Sc1nnc2[nH]c3ccccc3c2n1 | 56.9
CC(C)CC(C(=O)NCC#N)n1cnc2c(NCCCN3CCOCC3)ncnc21 (stereo not shown) | -1.41

SMILES | % Inhibition @ 10 uM [%]
O=C(O)c1ccc(CN2C(=O)c3ccccc3C2=O)cc1 | 3.25
O=C(Cn1c2ccccc2c2cnnc(O)c21)NCCc1ccc(Cl)cc1 | 1.38
CCOc1ccc(C(=O)N2CCc3ccccc3C2)cc1 | -11.7
CCOc1ccc(C2C3=C(O)c4ccccc4C3=Nc3nc(N)nc(O)c32)cc1 (stereo not shown) | 6.47
Cc1c(C(=O)/C=C/c2ccccc2)c2cc(O)ccc2n1C | 1.38
COc1cccc(/C=N/CCNC(=O)c2nonc2N)c1O | 1.63
O=C(Nc1ccc(F)cc1F)C1CC2CCC1C2 (stereo not shown) | 0.177
CCCOc1ccc2oc(=O)c3c(c2c1)CCCN3C(=O)CN1CCN(C(=O)OCC)CC1 | 13.3
CN(C)c1nc(SCC(=O)Nc2ccccc2)nc(N2CCOCC2)n1 | -4.39
CCOC(=O)c1c(C)[nH]c(C)c1S(=O)(=O)NCc1ccccc1Cl | -0.884
CC(C)C[C@H](NC(=O)OCc1ccccc1)C(=O)NC(C#N)c1csc2ccccc12 (stereo partly shown) | 1.71
CC(=O)C1=C(C)NC(=O)NC1c1cccc2c1OCO2 (stereo not shown) | -0.216
CC(C)(C)c1ccc(/C=C2\NC(=O)N(Cc3ccc(Cl)cc3)C2=O)cc1 | -3.06
O=[N+]([O-])c1cccc(CNC23CC4CC(CC(C4)C2)C3)c1 | 1.43
CN(C)CCCN(C(=O)c1ccc2c(c1)OCCO2)c1nc2ccc(Cl)cc2s1 | -1.6
Cc1ccc(C(=O)NCCCCNC(=O)c2ccc(C)o2)o1 | 0.795
CCOC(=O)c1cc(S(=O)(=O)NCCCN(C)Cc2ccccc2)cn1C | -2.84
Oc1ccccc1OCc1nc2ccccc2s1 | -1.69
COc1ccccc1OCC(=O)Nc1c(C(=O)c2ccccc2)oc2ccccc12 | 5.5
CC(=O)N1[C@@H](c2ccc(Br)cc2)SC[C@H]1C(=O)O | -0.744
CC(=O)C1=C(O)C(=O)N(CCN2C(=O)C(O)=C(C(C)=O)C2c2ccccc2)C1c1ccccc1 (stereo not shown) | -5.6
CSc1nc2ccc(Nc3nc(N4CCOCC4)nc(N4CCOCC4)n3)cc2s1 | -0.725
Oc1ccc(Oc2ccccc2)cc1C(O)(c1nc2ccccc2[nH]1)C(F)(F)F (stereo not shown) | -12.2
CNC(=O)C1CCCN(c2nn3cc(-c4ccc(F)cc4)nc3s2)C1 (stereo not shown) | -1.68
Cc1ccc(-n2nnc(-c3ccc(C(C)(C)C)cc3)n2)cc1 | -5.33
